From article PMC6265451
No constants are given. Whether binding was seen depends on the method and setting. Some entries that bind do so weakly or less than the wild type.

Tests used:
[1] = biological target: T1, Mpe1-TAPS (S. cerevisiae), P35728; assay: SEC; TAPS affinity purification from tagged yeast strain, then Superose 6 PC 3.2/30 in 20 mM HEPES pH 7.9, 150 mM KCl, 3 mM DTT, 0.5 mM Mg(OAc)2, 0.5 mM MnCl2; fractions on Coomassie-stained SDS-PAGE; conditions: remark: other sources report otherwise
T1 chain: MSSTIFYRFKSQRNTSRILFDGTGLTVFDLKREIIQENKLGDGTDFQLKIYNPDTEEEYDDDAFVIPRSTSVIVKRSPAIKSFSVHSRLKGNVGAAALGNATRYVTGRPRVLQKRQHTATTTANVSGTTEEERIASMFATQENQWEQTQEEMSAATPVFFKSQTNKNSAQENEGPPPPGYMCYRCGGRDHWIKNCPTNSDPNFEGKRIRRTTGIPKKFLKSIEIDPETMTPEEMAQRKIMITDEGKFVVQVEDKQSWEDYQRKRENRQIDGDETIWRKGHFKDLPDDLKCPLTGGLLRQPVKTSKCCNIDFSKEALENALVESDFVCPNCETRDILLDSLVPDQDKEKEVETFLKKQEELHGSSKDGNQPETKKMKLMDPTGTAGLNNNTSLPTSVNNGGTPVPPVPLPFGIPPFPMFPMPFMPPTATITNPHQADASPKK

[2] = biological target: Pap1-TAPS (S. cerevisiae), P29468; assay: as above; conditions: remark: other sources report otherwise

B1: Pap1, P29468 1-568 (enzyme)
chain: MSSQKVFGITGPVSTVGATAAENKLNDSLIQELKKEGSFETEQETANRVQVLKILQELAQRFVYEVSKKKNMSDGMARDAGGKIFTYGSYRLGVHGPGSDIDTLVVVPKHVTREDFFTVFDSLLRERKELDEIAPVPDAFVPIIKIKFSGISIDLICARLDQPQVPLSLTLSDKNLLRNLDEKDLRALNGTRVTDEILELVPKPNVFRIALRAIKLWAQRRAVYANIFGFPGGVAWAMLVARICQLYPNACSAVILNRFFIILSEWNWPQPVILKPIEDGPLQVRVWNPKIYAQDRSHRMPVITPAYPSMCATHNITESTKKVILQEFVRGVQITNDIFSNKKSWANLFEKNDFFFRYKFYLEITAYTRGSDEQHLKWSGLVESKVRLLVMKLEVLAGIKIAHPFTKPFESSYCCPTEDDYEMIQDKYGSHKTETALNALKLVTDENKEEESIKDAPKAYLSTMYIGLDFNIENKKEKVDIHIPCTEFVNLCRSFNEDYGDHKVFNLALRFVKGYDLPDEVFDENEKRPSKKSKRKNLDARHETVKRSKSDAASGDNINGTTAAVDVN
For B1, the binding [1] was “binds”.

B2: Yth1, Q06102 1-208 (protein)
chain: MSLIHPDTAKYPFKFEPFLRQEYSFSLDPDRPICEFYNSREGPKSCPRGPLCPKKHVLPIFQNKIVCRHWLRGLCKKNDQCEYLHEYNLRKMPECVFFSKNGYCTQSPDCQYLHIDPASKIPKCENYEMGFCPLGSSCPRRHIKKVFCQRYMTGFCPLGKDECDMEHPQFIIPDEGSKLRIKRDDEINTRKMDEEKERRLNAIINGEV
For B2, the binding [1] was “binds”.

B3: Fip1, P45976 1-327 (protein)
chain: MSSSEDEDDKFLYGSDSELALPSSKRSRDDEADAGASSNPDIVKRQKFDSPVEETPATARDDRSDEDIYSDSSDDDSDSDLEVIISLGPDPTRLDAKLLDSYSTAATSSSKDVISVATDVSNTITKTSDERLITEGEANQGVTATTVKATESDGNVPKAMTGSIDLDKEGIFDSVGITTIDPEVLKEKPWRQPGANLSDYFNYGFNEFTWMEYLHRQEKLQQDYNPRRILMGLLSLQQQGKLNSANDTDSNLGNIIDNNNNVNNANMSNLNSNMGNSMSGTPNPPAPPMHPSFPPLPMFGSFPPFPMPGMMPPMNQQPNQNQNQNSK
For B3, the binding [1] was “binds”.

B4: Mpe1, P35728 1-441 (protein)
chain: MSSTIFYRFKSQRNTSRILFDGTGLTVFDLKREIIQENKLGDGTDFQLKIYNPDTEEEYDDDAFVIPRSTSVIVKRSPAIKSFSVHSRLKGNVGAAALGNATRYVTGRPRVLQKRQHTATTTANVSGTTEEERIASMFATQENQWEQTQEEMSAATPVFFKSQTNKNSAQENEGPPPPGYMCYRCGGRDHWIKNCPTNSDPNFEGKRIRRTTGIPKKFLKSIEIDPETMTPEEMAQRKIMITDEGKFVVQVEDKQSWEDYQRKRENRQIDGDETIWRKGHFKDLPDDLKCPLTGGLLRQPVKTSKCCNIDFSKEALENALVESDFVCPNCETRDILLDSLVPDQDKEKEVETFLKKQEELHGSSKDGNQPETKKMKLMDPTGTAGLNNNTSLPTSVNNGGTPVPPVPLPFGIPPFPMFPMPFMPPTATITNPHQADASPKK
With B4 the binding [2] was “binds”.
